The results in this text go back to ChEMBL document CHEMBL4888484, “Replenishing the malaria drug discovery pipeline: Screening and hit evaluation of the MMV Hit Generation Library 1 (HGL1) against asexual blood stage Plasmodium falciparum ,using a nano luciferase reporter read-out” (2022).

A word on the % Inhibition: it is the drop in the measured response relative to a control, in per cent.

Molecules are shown by their SMILES. The whole screen tested about 150,000 compounds, of which about 540 (0.36%) showed an effect of 50% or more. This is one part of the list.

The subject of this experiment is Plasmodium falciparum. Kind of experiment: Primary screen in NF54 nanoGlo assay, in single point, at 2uM, 72h; a lower Z score goes with more inhibition. Format: functional, Erythrocyte. As to conditions: timepoint 72 hour.
Regarding `C[C@H](NC(=O)N1CCC2(CC1)NC(=O)CO2)c1ccsc1`, the “% Inhibition” value is reported as 3% and the Z score was -0.55.
On the same counts, the results for `O=C(Cc1ccsc1)N[C@@H]1COCC[C@@H]1OCc1ccccc1` are 6% and -0.74.
As to `C[C@H](C(=O)NCc1nnnn1C)C(C)(C)C`, the “% Inhibition” value was -7% and the Z score came to 0.8.
For the molecule `O=C1CCCN1CCCN1C(=O)[C@@H]2C[C@@H](O)CN2C2(CN(Cc3ccccc3F)C2)C1=O`, the “% Inhibition” value is given as -2% and the Z score is recorded as 0.28.
As to `Cc1ncsc1CCS(=O)(=O)N1CC[C@H](n2cc(Cl)cn2)C1`, the “% Inhibition” value is -14% and the Z score is given as 1.81.
In the same order, the values of `O=C(CN1CCOC1=O)N1CCC(c2nnc(-c3ccc(F)cc3)o2)CC1` are -12% and 2.3.
Consider `O=C(CN(CCC(F)(F)F)C1CCC1)N1CCCCC1`, for which the “% Inhibition” value was -6% and the Z score amounted to 0.81.
For the molecule `CC(C)C(=O)Nc1ccc(CNC(=O)C(C)(C)S(=O)(=O)c2ccc(Br)cc2)cc1`, the “% Inhibition” value is given as -7% and the Z score is reported as 0.82.
As to `O=C(N1CCc2oncc2C1)C1(c2ccccc2)CCOCC1`, the “% Inhibition” value is on record as -8% and the Z score is given as 1.3.
On the same counts, the results for `CC(=O)Nc1ccc(S(=O)(=O)N2CCC[C@H]2c2cc(C)no2)cc1` are -2% and 0.23.
Take `CC(C)NC(=O)N1C[C@@H]2Oc3ccc(C(F)(F)F)cc3C(=O)N(C)[C@@H]2C1`: the “% Inhibition” value was -11% and the Z score is 1.7.
With `Cc1nc(CCCNC(=O)[C@@H]2CCCO2)sc1C`, the “% Inhibition” value is on record as 3% and the Z score is -0.43.
On the same counts, the results for `Cc1ccc(CN2Cc3ccccc3N(CC(=O)O)C2=O)cc1` are 14% and -2.
Take `O=C(NC[C@H]1C[C@@H]1c1ccccc1)N1CCC(c2ccon2)CC1`: the “% Inhibition” value is listed as -10% and the Z score was determined as 0.99.
As to `COc1ccccc1CC(=O)NCc1ccccc1CN1CCCC[C@@H]1C`, the “% Inhibition” value worked out at 0% and the Z score came out at 0.05.
In the case of `C#CC[C@H](NC(=O)Cc1cc(F)c(F)cc1F)C(N)=O`, the “% Inhibition” value is given as -4% and the Z score is on record as 0.86.
As to `N[C@H]1[C@@H]2CC[C@H]1CN(C(=O)CCc1cccc(Cl)c1)C2`, the “% Inhibition” value is recorded as -3% and the Z score is given as 0.52.
Consider `CCCn1cc(C(=O)N2CC[C@H](c3cccnc3OC)C2)cn1`, for which the “% Inhibition” value is recorded as -17% and the Z score was found to be 2.15.
On to `O=C(O)CCc1cc2n(n1)CCN(Cc1cc(C3CCCCC3)no1)C2`, for which the “% Inhibition” value is listed as -3% and the Z score is recorded as 0.55.
Regarding `Clc1ccc2c(-c3ccccc3)c3c(nc2c1)Cc1ccccc1-3`, the “% Inhibition” value is reported as -7% and the Z score was 0.88.
As to `Cc1cccc([C@H](C)OC(=O)CN(C)S(=O)(=O)c2cccnc2)c1`, the “% Inhibition” value is given as -9% and the Z score was found to be 1.61.
Take `CC(C)(C)OC(=O)N1C[C@@H]2CCCN(C(=O)NCC(F)F)[C@@H]2C1`: the “% Inhibition” value is -8% and the Z score turned out to be 1.54.
In the case of `C=CCc1cc(C(=O)NCc2n[nH]c(=O)[nH]2)ccc1OC`, the “% Inhibition” value was -12% and the Z score is listed as 1.25.
On the same counts, the results for `Cc1ccc(CN2CCCN(C(=O)c3cnsn3)CC2)cc1` are 8% and -1.
In the case of `O=C1Nc2ccc(-c3ccccc3F)cc2C(=O)N2CCN(C(=O)C3CCNCC3)C[C@H]12`, the “% Inhibition” value is on record as -1% and the Z score is on record as 0.17.
Regarding `CC(C)N(C)C(=O)Cc1ccc(N)cc1`, the “% Inhibition” value was -13% and the Z score is given as 1.23.
With `Cc1ccccc1CN1CCCN([C@@H](C)C(=O)N2CCOCC2)CC1`, the “% Inhibition” value is -12% and the Z score was 2.21.
As for `CC(C)[C@@H](O)C(=O)N1CCc2onc(-c3cccc4ccccc34)c2C1`, the “% Inhibition” value is listed as -17% and the Z score is listed as 2.13.
Consider `CN(CC(=O)OC1CCCCCC1)S(=O)(=O)c1cccnc1`, for which the “% Inhibition” value is reported as 8% and the Z score is listed as -0.79.
Take `CCCN(CC)c1ccc(C(=O)O[C@H]2C(=O)OCC2(C)C)cc1`: the “% Inhibition” value is on record as -6% and the Z score is 0.75.
Regarding `CC(C)N(CCOCCO)C(=O)Nc1ccc(F)cc1C#N`, the “% Inhibition” value is listed as 13% and the Z score is given as -1.64.
On the same counts, the results for `N#Cc1c(F)cccc1NCc1csc(C2CC2)n1` are -8% and 1.16.
In the same order, the values of `COc1ccc(CN(C)C(=O)[C@H]2CCN(C)C(=O)C2)c(OC)c1` are -11% and 1.
`O=S(=O)(c1ccccc1OCC1CC1)N1CC(CO)C1`: the “% Inhibition” value is recorded as -3% and the Z score is 0.37.
`O=C(O)c1ccc(CN2CC[C@@](O)(Cc3ccc(F)cc3)C2)cc1Cl`: the “% Inhibition” value was -6% and the Z score is on record as 0.65.
On to `Nc1c2c(-c3ccccc3F)nc(N3CCN(c4ccccc4)CC3)nc2nn1-c1ccc(Cl)cc1`, for which the “% Inhibition” value was -2% and the Z score was 0.26.
Turning to `COc1ccc(C(=O)N2CC[C@H](c3nc(-c4cccn4C)no3)C2)c(OC)c1`, the “% Inhibition” value is reported as -12% and the Z score was 1.73.
With `FC1(F)Oc2cccc(-c3ccc(CN4CCCC4)cn3)c2O1`, the “% Inhibition” value is -2% and the Z score stood at 0.2.
As for `Cn1cccc1-c1noc(CNC(=O)c2ccc(=O)[nH]c2)n1`, the “% Inhibition” value is listed as -21% and the Z score was 2.64.
`CCn1cc([C@@H]2CN(C(=O)Cc3csc(NC(=O)C(C)C)n3)CCO2)cn1`: the “% Inhibition” value was -5% and the Z score turned out to be 0.88.
On the same counts, the results for `Cc1ncccc1C(=O)N1c2ccccc2C[C@H]1c1nc(C2CC2)no1` are -5% and 0.94.
Turning to `COCCN1CCC[C@@]2(CCN(Cc3cccc4cccnc34)C2)C1`, the “% Inhibition” value is on record as -18% and the Z score is listed as 2.37.
